The test concerns 772245-204-R-J1-PDC complex spheroid growth. Put plainly: Anticancer human tumor 772245-204-R-J1-PDC patient-derived rhabdomyosarcoma cell line growth inhibition [Asc]. To be noted: for viability, T/C: stronger effect = lower value. The procedure: Multicellular complex tumor spheroid response to apoptosis pathway targeting inhibitors Alrizomadlin, Pelcitoclax, and Dasminapant in combination with a variety of drugs and investigational agents in selected tumor cell lines
The MDM2 inhibitor alrizomadlin, the Bcl-2/Bcl-xL inhibitor pelcitoclax, and the IAPs inhibitor dasminapant were evaluated both individually and in combination with standard of care and investigational anticancer small molecules within a complex spheroid model of solid tumors. . Complex spheroids include a stromal component modeled by human endothelial cells (HUVEC) and fibroblasts modeled by human mesenchymal stem cells (MSCs). The concentration ranges selected for each drug and investigational agent were based upon clinically achievable concentrations if the clinical Cmax of the agent was known.
Compounds. The drugs and investigational agents: alrizomadlin (APG-115; NSC831270), pelcitoclax (APG-1252; NSC835773), dasminapant (APG-1387;NSC834197), TAK-243 (NSC785004), copanlisib (NSC809693), olaparib (NSC753686), talazoparib (NSC767125), cobimetinib (NSC 768068), eltanexor (KPT-8602, NSC 794443), abemaciclib (NSC 768073), sotorasib (NSC818433), adagrasib (NSC 831453), MRTX-1133 (NSC 836407), Iadademestat (ORY1001, NSC 806812), and RMC-4630 (NSC839698), were obtained from the NCI Developmental Therapeutics Program Chemical Repository. The FDA-approved anticancer drug set is available from the Developmental Therapeutics Program at https://dtp.cancer.gov/organization/dscb/obtaining/available plates.htm. […] The stock solutions were prepared in dimethyl sulfoxide (DMSO, Sigma-Aldrich, St. Louis, MO, cat. D2650) at 800-fold the tested concentration and stored at -70 degrees C prior to their use. All drugs and investigational agents were tested over a range starting from a high concentration at or near the clinical Cmax and decreasing in half-log increments. If the clinical Cmax for an agent had not been determined, the highest concentration tested was 10 microM.
The patient-derived cancer (PDC) cell lines include five colon adenocarcinomas: 186277-243-T-J2-PDC, 616215-338-R-J1-PDC, 439559-082-T-J2-PDC, 463943-066-T-J2-PDC, and 519858-162-T-J1-PDC; three pancreatic carcinomas: 323965-272-R-J2-PDC, 521955-158-R6-J3-PDC, and 521955-158-R2-J5-PDC; two uterine sarcomas: 327498-152-R-J2-PDC and 993429-296-R-J1-PDC; two rhabdomyosarcomas: 755483-174-R-J1-PDC and 772245-204-R-J1-PDC; two soft tissue sarcomas: 126254-015-R-J1-PDC and 494315-158-R-J1-PDC; two malignant fibrous histiocytomas: 317291-083-R-J1-PDC and 596521-263-R-J1-PDC; two breast carcinomas: 171881-019-R-J1-PDC and 885512-296-R-J2-PDC; and one ovarian carcinoma: 6556581-035-R-J-PDC were obtained from the NCI PDMR, (https://pdmr.cancer.gov). The established cell lines HSSY-2 synovial sarcoma (RRID:CVCL 8719), SYO-1 synovial sarcoma (RRID:CVCL_7146), MPNST malignant peripheral neural sheath tumor were obtained from the Sloan Kettering Institute. The following established cell lines were purchased from the American Type Culture Collection (ATCC, Manassas, VA), Sor the received from the NCI repository:, PANC-1 pancreatic carcinoma (CRL-1469, RRID:CVCL_0480), OVCAR-5 ovarian carcinoma (RRID:CVCL_1628), OVCAR-8 ovarian carcinoma (RRID:CVCL_1629), , MCF-7 breast carcinoma (CRL-12584, RRID:CVCL_0031), MDA-MB-231 breast carcinoma (CRL-12532, RRID:CVCL_0062), NCI-H1876 small cell lung carcinoma (CRL-5902, RRID:CVCL_1503), NCI-H510A small cell lung carcinoma (HTB-184, RRID:CVCL_1565), NCI-H1417 (CRL-5869, RRID:CVCL_1469), and NCI-H196 small cell lung carcinoma (CRL-5823, RRID:CVCL_1509). Dr. Peter Houghton (Greehey Children's Cancer Research Institute, University of Texas Health Science Center, San Antonio, TX) provided Rh-18 rhabdomyosarcoma (RRID:CVCL_1659). Pooled donor human umbilical vein endothelial cells (HUVEC, Lonza, cat. CC-2519) and human mesenchymal stem cells (hMSC, Lonza, cat. PT-2501) were purchased from Lonza (Walkersville, MD).
Cell Culture. […]

SMILES strings stand for the structures. Not every entry of the source has a single result; some have several. The other results are left out here. There may be further records. Values given together are repeated measurements in other runs, samples, wells, individuals or studies. Additions like (4×) say how often a value occurs here. Marks such as [2022-09] give the month of the run.
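Also: compound exposure lasted seven days.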
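For viability, T/C in this document: 100% = DMSO vehicle control viability.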

For orientation: viability, T/C means the ratio of treated to control. `CCN1C(C(=O)NC23CCC(C(=O)O)(CC2)CC3)C(c2cccc(Cl)c2F)C2(C(=O)Nc3cc(Cl)ccc32)C12CCCCC2` (configuration not stated): the viability, T/C (compound alone 0.03 µM) is listed as 109, 97.1, 102, 96.7, 94.2, 95.1, 108, 103, 113, 89.2, 97.2, 91.7, 96.5, 85.4, 99.3%; the viability, T/C (compound alone 0.0949 µM) is 106, 108, 95.5, 100 (2×), 99.4, 102 (2×), 107, 104, 90.2, 112, 101, 88.7, 85.1%; the viability, T/C (compound alone 0.3 µM) was 116, 111, 110, 88.2, 105, 89.1, 98.7, 95.7, 108, 88.3, 89.6, 89.5, 101, 85.5, 99.3%; the viability, T/C (compound alone 0.949 µM) is 99, 83.8, 98, 93.2, 79.1, 87.2, 96.9, 109, 104, 93.7, 94, 81.8, 114, 93.3, 98.8%; the viability, T/C (compound alone 3 µM) is on record as 81.7, 92.2, 84.9, 75.5, 71.6, 62.9, 86, 78.2, 85.8, 74.5, 75.1, 80.1, 74.7, 65.4, 90.2%.

Take `CNC(C)C(=O)NC1CN(S(=O)(=O)c2cccc(S(=O)(=O)N3CCC4CCC(C(=O)NC(c5ccccc5)c5ccccc5)N4C(=O)C(NC(=O)C(C)NC)C3)c2)CCC2CCC(C(=O)NC(c3ccccc3)c3ccccc3)N2C1=O` (configuration not stated): the viability, T/C was 89.2, 76.7, 116, 85.9, 89, 107, 120, 99.9, 92.8, 93.8, 88.8, 104, 95.7% [2022-10] and 113% [2022-11] (compound alone 0.0316 µM); 75.1, 65.1, 105, 82.9, 95.4, 86.5, 94.6, 86.6, 106, 89.3, 89.9, 85.9, 89% [2022-10] and 101% [2022-11] (compound alone 0.1 µM); 71, 88.8, 98.7, 95, 91.9, 84, 96.6, 95.9, 97.7, 86.6, 93.3, 91.4, 101% [2022-10] and 96% [2022-11] (compound alone 0.316 µM); 75, 70.7, 89.9, 91.3, 87, 91.7, 106, 90.8, 92.6, 88, 88.5, 86, 89.5% [2022-10] and 101% [2022-11] (compound alone 1 µM).

A word on the IC50: it is the point on the concentration scale where inhibition reaches its midpoint. With `Cc1c(S(C)(=O)=O)c(-c2cc(F)cc(N3CCN(c4ccc(NS(=O)(=O)c5ccc(NC(CCN6CCC(C(=O)OCCCP(=O)(O)O)CC6)CSc6ccccc6)c(S(=O)(=O)C(F)(F)F)c5)cc4)CC3)c2)c(-c2ccc(Cl)cc2)n1C(C)C` (configuration not stated), the viability, T/C (compound alone 3.16 µM) is 36.3, 42.4, 63.2, 40.7, 53.6, 31.4, 46.3, 41.1, 38, 43.2, 40.3, 45.9, 46.4, 33.8%. Besides, the IC50 (compound alone, run of 10/11/2022) is given as 2.02 µM, 1.54 µM, > 10 µM, 1.04 µM, 919 nM, 1.06 µM, 1.11 µM, 706 nM, 2.33 µM, 1.37 µM, 1.69 µM, 990 nM, 660 nM.

With `C=C(F)C(=O)N1CCN(c2nc(OCC3CCCN3C)nc3c2CCN(c2cccc4cccc(Cl)c24)C3)CC1CC#N` (configuration not stated), the viability, T/C (compound alone 10 µM) is 0.25%, 0.24%, 37.7%.

The values above are taken from PubChem BioAssay AID1963433 (Molecular Pharmacology Branch, DTP, NCI, 2024).
